Out of some 270,000 compounds screened, about 5,800 (2.1%) were called active. The shares of active, inactive and inconclusive entries below differ from those in the screen. The call rests on the fitted dose curve; in most records, active means well fitted inhibition curve with a large enough effect; inconclusive means small, poorly fitted or top-dose-only effect; inactive means flat fitted curve, though single readings scatter. Potencies of inconclusive entries are doubtful fits and often do not repeat.
Target: Microtubule-associated protein tau (Homo sapiens) (UniProt P10636)
Sequence of UniProt P10636 (P10636 whole entry, looked up): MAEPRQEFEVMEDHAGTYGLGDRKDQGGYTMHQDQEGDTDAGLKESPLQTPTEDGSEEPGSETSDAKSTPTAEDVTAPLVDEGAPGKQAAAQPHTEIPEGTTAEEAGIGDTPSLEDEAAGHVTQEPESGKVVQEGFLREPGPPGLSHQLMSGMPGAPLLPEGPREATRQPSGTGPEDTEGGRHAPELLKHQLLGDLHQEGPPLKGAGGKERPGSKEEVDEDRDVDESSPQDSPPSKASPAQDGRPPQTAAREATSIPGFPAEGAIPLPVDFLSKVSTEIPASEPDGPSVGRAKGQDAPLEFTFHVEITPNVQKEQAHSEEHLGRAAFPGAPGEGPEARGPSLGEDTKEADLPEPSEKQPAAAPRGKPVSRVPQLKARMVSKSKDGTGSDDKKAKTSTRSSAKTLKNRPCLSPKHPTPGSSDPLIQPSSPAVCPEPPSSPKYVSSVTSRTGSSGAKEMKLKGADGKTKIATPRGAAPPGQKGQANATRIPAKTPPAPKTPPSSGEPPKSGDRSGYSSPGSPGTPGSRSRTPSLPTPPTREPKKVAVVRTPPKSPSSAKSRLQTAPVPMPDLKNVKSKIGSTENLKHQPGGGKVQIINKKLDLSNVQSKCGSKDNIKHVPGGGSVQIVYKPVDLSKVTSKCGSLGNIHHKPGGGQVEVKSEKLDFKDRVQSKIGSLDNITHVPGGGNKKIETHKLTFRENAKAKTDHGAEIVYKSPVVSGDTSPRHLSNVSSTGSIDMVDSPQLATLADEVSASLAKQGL
Experiment: qHTS for Inhibitors of Tau Fibril Formation, Thioflavin T Binding; further: nearly all actives have a fitted effect of over 55% in size
Conditions: recombinant tau K18 P301L (four-repeat tau fragment), heparin-induced fibrillization, ThT fluorescence; series mostly up to 57.4 µM
Procedure, shortened: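 Aggregation was driven by heparin (20 uM final) acting on recombinant tau […] bearing P301L in 100 mM sodium acetate pH 7; fibrils were detected with Thioflavin T.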
Potency means the concentration at half of the fitted maximal effect; tags describe the fitted curve by direction and shape.

Structure (SMILES)	Potency
Cc1cc(C)n(CC(=O)N/N=C/c2cc(Br)cc([N+](=O)[O-])c2O)n1	inconclusive: 2.82 µM [inhibitor, partial curve]
CCOc1ccccc1Nc1nnc(SCC(=O)NC(=O)c2cccn2C)s1	inconclusive: 7.94 µM [activator, single point]
CC(=O)NCc1nc2cccnc2n1Cc1ccccc1	inactive
CCN(CC)c1ccc(NC(=O)CCCCCN2C(=O)c3ccccc3C2=O)cc1	inconclusive: 15.8 µM [inhibitor, partial curve]
COc1ccc(-c2csc(NC(=O)C3COc4ccccc4O3)n2)cc1OC (stereo not drawn)	inconclusive: 6.31 µM [inhibitor, partial curve]
CC(=O)Oc1ccc(C(=O)c2ccccc2)c(OC(C)=O)c1	inconclusive: 12.6 µM [inhibitor, partial curve, poor fit]
CCC(C)Cn1c(O)cc2nn(-c3nc4ccccc4s3)c(=O)c-2c1C (stereo not drawn)	active: 31.6 µM
O=C(CC1SC(=O)N(c2ccccc2)C1=O)Nc1cccc2ccccc12 (stereo not drawn)	inconclusive: 8.91 µM [inhibitor, partial curve]
COc1cccc(CNC(=O)c2c(C)oc3nc(C)nc(N4CCOCC4)c23)c1	inactive
COC(=O)N/N=C/c1cn(CC(C)COc2ccccc2)c2ccccc12 (stereo not drawn)	inconclusive: 20 µM [inhibitor, partial curve]
C/C(=C\C(=O)c1ccc(C)cc1)Nc1ccc(N2CCOCC2)cc1	inconclusive: 1.12 µM [inhibitor, full curve]
COc1ccc2ccccc2c1CNC(=O)CC1C(=O)NCCN1CC(C)C (stereo not drawn)	inconclusive: 35.5 µM [inhibitor, single point]
CCCOC(=O)c1ccc(-c2ccc(C=O)o2)cc1	inconclusive: 10 µM [inhibitor, partial curve, poor fit]
CCCn1c(C(O)c2ccc3c(c2)OCO3)nc2ccccc21 (stereo not drawn)	inactive
NS(=O)(=O)c1ccc(N/N=C/c2cn(-c3ccccc3)nc2-c2ccccc2)c([N+](=O)[O-])c1	active: 15.8 µM
O=C(O)c1ccn2c(C(=O)c3ccccc3)c(-c3ccccc3)cc2c1	inconclusive: 35.5 µM [inhibitor, single point]
CN(Cc1ccccc1)Cc1nc2c([nH]1)c(=O)n(C)c(=O)n2C	inactive
O=C(c1ccco1)[C@@H]1[C@@H]2C(=O)N(c3ccc(F)cc3)C(=O)[C@@H]2C2c3ccccc3C=CN21 (stereo partly drawn)	active: 25.1 µM
COc1ccccc1NC(=O)c1cc2ccccc2nc1C	inconclusive: 15.8 µM [inhibitor, partial curve, poor fit]
O=[N+]([O-])c1cc(-c2nnc(Nc3ccc(O)cc3)c3ccccc23)ccc1N1CCOCC1	inconclusive: 14.1 µM [inhibitor, partial curve]
COc1ccc(Nc2oc(-c3ccccc3F)nc2C#N)cc1	inconclusive: 2.24 µM [inhibitor, partial curve, poor fit]
CN(Cc1ccccc1)c1ccc2nnc(-c3ccccc3)n2n1	inconclusive: 20 µM [inhibitor, partial curve]
CCc1ccc(NC(=O)C2CCCN(S(=O)(=O)c3c(C)noc3/C=C/N(C)C)C2)cc1 (stereo not drawn)	inconclusive: 14.1 µM [inhibitor, partial curve]

Structure (SMILES)	Potency
NNC(=O)c1ccc(COc2ccc3c(c2)CCC3)o1	inconclusive: 35.5 µM [inhibitor, partial curve]
O=C(/C=C/c1ccco1)N(c1ccccn1)c1ccccn1	inconclusive: 22.4 µM [inhibitor, single point]
COc1ccccc1N1CCN(Cc2ccc(OC)c3ccccc23)CC1	inconclusive: 28.2 µM [inhibitor, single point]
Cc1ccc(Cl)cc1N1CCN(C(=O)CCCCCn2c(=O)[nH]c3ccccc3c2=O)CC1	inconclusive: 15.8 µM [inhibitor, partial curve]
Cc1cc(C(=O)c2cccs2)c(N)s1	inconclusive: 28.2 µM [inhibitor, single point]
COc1ccc(NC(=O)Nc2ccccc2SC)cc1OC	inconclusive: 22.4 µM [inhibitor, partial curve, poor fit]
CN(C)c1ccc(-c2cncnc2NCc2ccccc2)cc1	inconclusive: 12.6 µM [inhibitor, partial curve]
CNC(=O)c1sc(-c2cccnc2)nc1C	inactive
O=C(Cn1ccc2cc(S(=O)(=O)N3CCCCCC3)ccc21)NCCc1ccc(Cl)cc1	inactive
C/C(=N\NC(=O)c1ccccc1O)c1c(O)cc(C)oc1=O	inconclusive: 11.2 µM [inhibitor, partial curve]
C=CC1=C(C)C2=Cc3c(C=C)c(C)c4[n]3[Sn+2][n]3c(c(C)c(CCC(=O)O)c3=CC3=NC(=C4)C(C)=C3CCC(=O)O)=CC1=N2	inconclusive: 15.8 µM [inhibitor, partial curve]
O=C(NC1CCCCCC1)C1c2ccccc2C(=O)N1Cc1ccccc1Cl (stereo not drawn)	inactive
Cc1ccc2c(Cl)cc(Cl)c(OCC(=O)NCc3ccco3)c2n1	inconclusive: 25.1 µM [inhibitor, partial curve]
Cc1cccc(C(=O)Nc2ccc(OCc3cc(=O)n4ccsc4n3)cc2)c1	inconclusive: 0.562 µM [inhibitor, full curve]
COC(=O)c1c(OC)cc2c(c1C)Oc1c(Cl)c(O)c(Cl)c(C)c1C(=O)O2	inconclusive: 35.5 µM [inhibitor, partial curve]
COc1ccc(OC)c(C2C(C#N)=C(N)Oc3c2c(C)nn3-c2cccc(Cl)c2)c1 (stereo not drawn)	active: 12.6 µM
O=C(NC1C(=O)NNC1c1ccccc1)c1ccc(F)cc1 (stereo not drawn)	inconclusive: 2 µM [inhibitor, full curve]
COc1ccc(/C=C/C(=O)Nc2ccc(Cl)c(Cl)c2)cc1	inconclusive: 11.2 µM [activator, partial curve]
COC(=O)Cn1cnc2c(nnn2Cc2ccc(Cl)cc2)c1=O	inactive
CC(C)(C)c1ccc(CSc2nnc(-c3ccccn3)n2Cc2ccco2)cc1	inconclusive: 17.8 µM [inhibitor, partial curve]
CCOC(=O)C1=C(C)N=c2s/c(=C\c3ccc(OCC(=O)O)cc3)c(=O)n2C1c1ccc(OC(C)C)cc1 (stereo not drawn)	inconclusive: 28.2 µM [inhibitor, partial curve]
Cc1cc2c(cc3c(SCC(=O)Nc4cccc(Cl)c4C)nnc(C)n32)o1	inconclusive: 3.55 µM [inhibitor, full curve]
CCOC(=O)c1cnc2ccccc2c1Nc1cccc(OC)c1	inconclusive: 39.8 µM [inhibitor, single point]

Structure (SMILES)	Potency
O=C(NCc1ccccc1)c1ccc2c(=O)n(CCCN3CCCC3=O)c(=S)[nH]c2c1	inactive
O=c1[nH][nH]c(C(F)(F)F)c1/C=N/N1CCOCC1	inconclusive: 28.2 µM [inhibitor, single point]
Cn1c(=O)n(CCc2ccccc2)c(=O)c2c1nc1n2CCCN1Cc1ccccc1	inconclusive: 28.2 µM [inhibitor, single point]
Cc1ccc(-c2nnc(SCC(=O)NCc3ccccc3)nc2-c2ccc(C)cc2)cc1	inactive
CC(Oc1ccccc1)C(=O)N=Nc1c(O)[nH]c2ccc([N+](=O)[O-])cc12 (stereo not drawn)	inconclusive: 15.8 µM [inhibitor, partial curve]
C#CCCOC(=O)N1C2=NC(C(=O)OC)=C(C(=O)OC)[C@@H]3N(C)c4ccccc4[C@]23C[C@H]1C(=O)OC	inconclusive: 8.91 µM [inhibitor, full curve, poor fit]
CCN(CC)c1ccc(/C=C2/SC(=O)N(C(C)C)C2=O)o1	active: 17.8 µM
O=c1c2sccc2n(Cc2cc(=O)n3ccccc3n2)c(=O)n1-c1cccc(C(F)(F)F)c1	inactive
OCC1CCCN(C2CCN(Cc3nc(Cc4cccc(C(F)(F)F)c4)no3)CC2)C1 (stereo not drawn)	inactive
COc1cc(NC(=O)c2cccc(C)c2)c(OC)cc1NC(=O)CN1CCCCC1	inactive
CCN1CCN(c2cc(-c3ccccc3)nc3cc(-c4cccc(F)c4)nn23)CC1	inconclusive: 22.4 µM [activator, partial curve]
COCCNC(=O)Cn1cc(/C=N/NC(=O)c2ccc(Oc3ccc(O)cc3)cc2)c2ccccc21	inconclusive: 15.8 µM [inhibitor, partial curve]
COc1ccc(OC)c(NC2c3ccccc3C(=O)N2Cc2ccc3c(c2)OCO3)c1 (stereo not drawn)	inconclusive: 35.5 µM [inhibitor, partial curve]
COC(=O)c1sc2nc(C)cc(-c3ccccc3)c2c1N	inconclusive: 31.6 µM [inhibitor, single point]
Cc1ccc(-c2cc3c(N4CCN(c5cc(C)ccc5C)CC4)nccn3n2)cc1	inactive
Cn1ncc2c(Nc3ccc(-c4ccccc4)cc3)ncnc21	inconclusive: 31.6 µM [activator, single point]
COc1ccc(NC(=O)C2C3C=CC(C3)C2C(=O)NCc2ccco2)cc1 (stereo not drawn)	inactive
Cc1ccc(S(=O)(=O)Cc2ccc(C(=O)NCc3ccc4c(c3)OCO4)o2)cc1	inactive
Cc1ccc(C(=O)Nc2ccc(O)cc2C(=O)O)cc1C	inconclusive: 2.51 µM [inhibitor, full curve]
CCC(=NCc1ccc(Cl)c(Cl)c1)c1nc(-c2ccco2)oc1O	inconclusive: 31.6 µM [inhibitor, single point]
O=C(c1cc2ncc(Br)cn2n1)N1CCOCC1	inactive
O=C(Nc1sc2c(c1C(=O)O)CCCCC2)c1ccco1	inconclusive: 7.08 µM [inhibitor, partial curve]

From PubChem BioAssay AID1460 (National Center for Advancing Translational Sciences (NCATS), 2008)
